{"source": "paper PMC4336329", "about": "(PLoS ONE, 2015)", "note": "Hit rate of the full screen: of about 310,000 compounds, about 14,000 (4.5%) showed an effect of 50% or more. Effects have a minus sign here. The list shows a part of the results.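 Note: peak tail current of the secondary pulse compared with the same well before compound.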"}
{"molecular_target": "human ether-à-go-go-related gene (hERG) potassium channel (human, UniProt Q12809)", "sequence (Q12809 whole entry, looked up)": "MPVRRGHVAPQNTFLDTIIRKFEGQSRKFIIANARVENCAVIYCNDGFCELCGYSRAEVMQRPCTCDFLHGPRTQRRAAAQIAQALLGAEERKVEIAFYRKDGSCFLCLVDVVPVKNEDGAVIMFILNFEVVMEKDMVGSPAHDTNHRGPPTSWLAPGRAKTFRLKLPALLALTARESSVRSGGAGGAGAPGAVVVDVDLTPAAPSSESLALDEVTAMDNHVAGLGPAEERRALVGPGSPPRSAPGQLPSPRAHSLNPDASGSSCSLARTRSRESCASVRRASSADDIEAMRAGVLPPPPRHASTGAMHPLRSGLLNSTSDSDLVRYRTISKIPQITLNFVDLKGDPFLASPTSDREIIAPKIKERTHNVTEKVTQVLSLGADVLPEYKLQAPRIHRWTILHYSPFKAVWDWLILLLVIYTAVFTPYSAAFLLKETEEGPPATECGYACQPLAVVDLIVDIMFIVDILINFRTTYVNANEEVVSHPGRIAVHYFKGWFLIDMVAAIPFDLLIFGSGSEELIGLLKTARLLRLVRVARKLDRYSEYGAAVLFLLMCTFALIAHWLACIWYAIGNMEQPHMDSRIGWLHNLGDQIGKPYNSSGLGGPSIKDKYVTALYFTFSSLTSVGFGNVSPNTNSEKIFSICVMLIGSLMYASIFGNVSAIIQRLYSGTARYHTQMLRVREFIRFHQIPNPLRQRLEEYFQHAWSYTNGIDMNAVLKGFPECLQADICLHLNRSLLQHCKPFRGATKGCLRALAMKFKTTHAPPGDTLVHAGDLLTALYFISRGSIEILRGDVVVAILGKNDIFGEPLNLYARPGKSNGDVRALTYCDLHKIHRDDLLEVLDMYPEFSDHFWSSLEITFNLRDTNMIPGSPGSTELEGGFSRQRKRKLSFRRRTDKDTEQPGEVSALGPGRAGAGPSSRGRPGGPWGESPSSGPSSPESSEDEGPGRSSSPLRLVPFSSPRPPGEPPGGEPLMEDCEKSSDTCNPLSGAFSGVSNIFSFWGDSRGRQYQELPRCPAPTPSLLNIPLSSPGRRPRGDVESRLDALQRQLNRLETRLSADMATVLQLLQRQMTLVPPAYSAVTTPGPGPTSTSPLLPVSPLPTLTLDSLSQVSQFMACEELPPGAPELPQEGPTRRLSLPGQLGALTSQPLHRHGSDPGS", "assay": "primary screen, population patch clamp on CHO cells stably expressing hERG", "units": {"hERG current change (%, negative = inhibition) at 10uM": "%"}}
{"smiles": "Cc1cc(C)n(C(=O)CN2C(=O)COc3ccccc32)n1", "hERG current change (%, negative = inhibition) at 10uM": 11.3}
{"smiles": "CSCC(=O)NCC1(N(C)Cc2ccccc2)Cc2ccccc2C1", "hERG current change (%, negative = inhibition) at 10uM": 4.41}
{"smiles": "Cc1csc(NC(=O)CSc2nnc(-c3ccoc3C)n2Cc2ccco2)n1", "hERG current change (%, negative = inhibition) at 10uM": -82}
{"smiles": "O=C(O)c1csc(-c2cccc(Cl)c2)n1", "hERG current change (%, negative = inhibition) at 10uM": 11.1}
{"smiles": "COc1ccc(C(=O)c2ccc(N3CCN(C(=O)c4ccc(F)cc4)CC3)c(F)c2)cc1Br", "hERG current change (%, negative = inhibition) at 10uM": -7.78}
{"smiles": "Cc1c(C(=O)NC2CCCCC2)sc2ncnc(N3CCN(c4ccccc4)CC3)c12", "hERG current change (%, negative = inhibition) at 10uM": 13.7}
{"smiles": "CN(Cc1cccs1)C(=O)COc1cccc(-n2cnnn2)c1", "hERG current change (%, negative = inhibition) at 10uM": -11.3}
{"smiles": "C#CCOCCOCCOCCNc1nc(N2CCN(C(=O)C([C@@H](C)CC)n3cc(C(N)COC(=O)C(F)(F)F)nn3)CC2)nc(N2CCN(C(=O)C([C@@H](C)CC)n3cc(C(N)CC(C)C)nn3)CC2)n1.Cl", "note": "(some centres unmarked)", "hERG current change (%, negative = inhibition) at 10uM": 28.5}
{"smiles": "COC(=O)/C=C1\\S/C(=N/N=C/c2ccc(Cl)cc2)NC1=O", "hERG current change (%, negative = inhibition) at 10uM": 16.7}
{"smiles": "ONC(=Nc1ccccc1)c1ccccc1Cl", "hERG current change (%, negative = inhibition) at 10uM": 2.37}
{"smiles": "Cc1ccccc1CN1CCN(C/C=C/c2ccccc2)CC1", "hERG current change (%, negative = inhibition) at 10uM": 8.81}
{"smiles": "Cc1cnc(C(=O)OCC(=O)c2ccc(C3CCCCC3)cc2)cn1", "hERG current change (%, negative = inhibition) at 10uM": -1.88}
{"smiles": "O=C(CCC1CCN(Cc2ccccc2Cl)CC1)NC1CC1", "hERG current change (%, negative = inhibition) at 10uM": -23.2}
{"smiles": "O=C(Nc1cc(Cl)ccc1F)C1=COCCO1", "hERG current change (%, negative = inhibition) at 10uM": 17}
{"smiles": "COc1ccccc1Nc1nc(N)nc(CSC(=S)N2CCCCC2C)n1", "note": "(centres unmarked)", "hERG current change (%, negative = inhibition) at 10uM": -5.64}
{"smiles": "CCOC(=O)C(NC(C)=O)C(=O)Nc1ccc(OC)cc1", "note": "(centres unmarked)", "hERG current change (%, negative = inhibition) at 10uM": 11.6}
{"smiles": "CSC1=NCCN1C(=O)c1c(-c2ccccc2Cl)noc1C", "hERG current change (%, negative = inhibition) at 10uM": -0.666}
{"smiles": "CSc1ccc(CNC2CN3CCC2CC3)cc1.Cl", "note": "(centres unmarked)", "hERG current change (%, negative = inhibition) at 10uM": -10.7}
{"smiles": "Cc1cc(Nc2cc(F)ccc2C)n2nc(C)nc2n1", "hERG current change (%, negative = inhibition) at 10uM": -2}
{"smiles": "Fc1cccc(-c2cc3nc(-c4ccccc4)cc(N4CCC5(CC4)OCCO5)n3n2)c1", "hERG current change (%, negative = inhibition) at 10uM": 7.68}
{"smiles": "NC(=O)Nc1ccc(Oc2c(F)c(F)c(F)c(F)c2F)cc1", "hERG current change (%, negative = inhibition) at 10uM": -11.5}
{"smiles": "CC(C)(C)CC(C)(C)N=C1NS(=O)(=O)c2cc([N+](=O)[O-])ccc21", "hERG current change (%, negative = inhibition) at 10uM": 9.73}
{"smiles": "CCOC(=O)C(Sc1cc(C)nc(N)n1)C(C)=O", "note": "(centres unmarked)", "hERG current change (%, negative = inhibition) at 10uM": 12.4}
{"smiles": "O=C(COC(=O)CCc1c[nH]c2ccccc12)NC(c1ccccc1)c1ccccc1", "hERG current change (%, negative = inhibition) at 10uM": 1.23}
{"smiles": "CC(C)N1CCN(Cc2ccc(OCc3ccccc3)cc2)CC1CCO", "note": "(centres unmarked)", "hERG current change (%, negative = inhibition) at 10uM": -51.6}
{"smiles": "Cc1ccc(C)c(-c2cc(C(=O)Nc3cccnc3)c3ccccc3n2)c1", "hERG current change (%, negative = inhibition) at 10uM": -61}
{"smiles": "COC(=O)Nc1ccc(S(=O)(=O)Nc2ccc(C(=O)O)cc2)cc1", "hERG current change (%, negative = inhibition) at 10uM": 17.4}
{"smiles": "CCCOc1ccc(N/C=C/C(=O)c2cc(OC)c(OC)c(OC)c2)cc1", "hERG current change (%, negative = inhibition) at 10uM": 11.6}
{"smiles": "COc1ccc(OC)c(/C=C/C(=O)OCC(=O)Nc2ccc3c(c2)OCCO3)c1", "hERG current change (%, negative = inhibition) at 10uM": 15.9}
{"smiles": "O=C(NNC(=O)c1nn(-c2ccc(F)cc2)ccc1=O)Nc1cccc(Cl)c1", "hERG current change (%, negative = inhibition) at 10uM": 13.6}
{"smiles": "COc1cc(C(=O)Nc2ccc3c(c2)OCO3)c([N+](=O)[O-])cc1OC", "hERG current change (%, negative = inhibition) at 10uM": 9.96}
{"smiles": "Cn1c(CN2CCCC2)nc2cc(NC(=O)C3CCCCC3)ccc21", "hERG current change (%, negative = inhibition) at 10uM": -4.77}
{"smiles": "COc1ccc(OC)c(N(CC(=O)NCCSc2ccccc2)S(C)(=O)=O)c1", "hERG current change (%, negative = inhibition) at 10uM": -32.7}
{"smiles": "CCC(=O)OCCNc1cc(SCCC(=O)OC)c2nonc2c1[N+](=O)[O-]", "hERG current change (%, negative = inhibition) at 10uM": -48.9}
{"smiles": "Cc1cc2oc(C(=O)NCc3ccc4c(c3)OCO4)c(C)c2cc1C", "hERG current change (%, negative = inhibition) at 10uM": 9.91}
{"smiles": "CCC(C)(C)NC(=O)CN(C(=O)c1snc(C(N)=O)c1N)c1ccc2c(c1)OCO2", "hERG current change (%, negative = inhibition) at 10uM": -7.73}
{"smiles": "O=C(CCS(=O)(=O)c1cccs1)N1CCN(c2ccc(F)cc2)CC1", "hERG current change (%, negative = inhibition) at 10uM": -41}
{"smiles": "COC(=O)c1nn(-c2ccccc2)c(Cl)c1/C=N/OCc1ccc(C)cc1", "hERG current change (%, negative = inhibition) at 10uM": 20.3}
{"smiles": "Cc1ccc(S(=O)(=O)CC(=O)Nc2cc(C)on2)cc1", "hERG current change (%, negative = inhibition) at 10uM": 16.5}
{"smiles": "O=C(COC(=O)c1ccc([N+](=O)[O-])o1)Nc1nc2ccccc2s1", "hERG current change (%, negative = inhibition) at 10uM": -10.6}
{"smiles": "COC(=O)Nc1nc(C)c(C(=O)c2ccccc2)s1", "hERG current change (%, negative = inhibition) at 10uM": -11.5}
{"smiles": "Cc1ccc(C)c(NC(=O)CN(C)C(=O)c2nn(C)c(=O)c3ccccc23)c1", "hERG current change (%, negative = inhibition) at 10uM": 9.87}
{"smiles": "Cc1ccc(NC(=O)CN(C)C(=O)CCC(=O)c2cccs2)cc1", "hERG current change (%, negative = inhibition) at 10uM": -16.2}
{"smiles": "CCOC(=O)N1CCN(C(=O)Cn2c(C)cc3ccccc3c2=O)CC1", "hERG current change (%, negative = inhibition) at 10uM": 3.68}
{"smiles": "CCOC(=O)C1=C(C)OC(N)=C(C#N)C1c1ccccc1", "note": "(centres unmarked)", "hERG current change (%, negative = inhibition) at 10uM": 4.65}
{"smiles": "Cc1ccc(-n2c(Cc3cccn3C)nnc2SCC(=O)Nc2cc(C)on2)cc1", "hERG current change (%, negative = inhibition) at 10uM": -12.7}
{"smiles": "COc1ccc(CCC(=O)OCC(=O)Nc2sccc2C(N)=O)cc1", "hERG current change (%, negative = inhibition) at 10uM": -5.4}
{"smiles": "COC(=O)c1c(NC(=O)COC(=O)CNC(=O)C2CCCCC2)sc(C)c1C", "hERG current change (%, negative = inhibition) at 10uM": -0.867}
{"smiles": "CC(c1ccc(F)cc1)n1c(Cn2ncc3ccccc3c2=O)n[nH]c1=S", "note": "(centres unmarked)", "hERG current change (%, negative = inhibition) at 10uM": 5.35}
{"smiles": "CCOC(=O)CSc1nc2sc3c(c2c(=O)[nH]1)CC(C)(C)OC3", "hERG current change (%, negative = inhibition) at 10uM": 0.154}
{"smiles": "Cc1c(NC(=O)c2ccccc2)c(=O)n(-c2ccccc2)n1C", "hERG current change (%, negative = inhibition) at 10uM": -3.48}
{"smiles": "Cc1[nH]n(-c2ccccc2)c(=O)c1N=Nc1ccccc1C(=O)O", "hERG current change (%, negative = inhibition) at 10uM": 1.85}
{"smiles": "CCn1c(=O)cc(N2CCOCC2)[nH]c1=O", "hERG current change (%, negative = inhibition) at 10uM": 0.84}
{"smiles": "COc1ccccc1N1CCN(C(=O)c2oc3cc(C)cc(C)c3c2C)CC1", "hERG current change (%, negative = inhibition) at 10uM": 10.6}
{"smiles": "Cc1c(/C(O)=C2/C(=O)C(=O)N(CCN3CCOCC3)C2c2ccccn2)cnn1-c1ccccc1", "note": "(centres unmarked)", "hERG current change (%, negative = inhibition) at 10uM": 10.9}
{"smiles": "CCCC(NC(=O)C(C)N1CCN(S(=O)(=O)c2ccccc2)CC1)c1ccccc1", "note": "(centres unmarked)", "hERG current change (%, negative = inhibition) at 10uM": -27.8}
